Common to all, as to experiment: enrichment score (SH2-bound / input frequency) (ratio); bacterial display of known human phosphotyrosine sites (pTyr-Var adds point mutants) read by sequencing; higher = stronger binding; tyrosines were phosphorylated by kinases first
Common to all, as to conditions: peptide library: pTyr-Var

Experiment [1] deals with SHP2 C-SH2 domain E139D.
The target of experiment [2] is SHP2 C-SH2 domain wild-type.
Experiment [3] addresses SHP2 N-SH2 domain L43F.
Experiment [4] has as its target SHP2 N-SH2 domain T42A.
The target in experiment [5] is SHP2 N-SH2 domain T52S.
For experiment [6], the target named is SHP2 N-SH2 domain wild-type.

This is one part of the list. Rule as the data show it: active = 3.2 or more and inactive = the rest. Only a few entries rise above the background.
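Also: displayed peptides selected on beads carrying the immobilized SH2 domain, with library peptides lacking any tyrosine serving as negative controls.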

Consider PPTYRYERGSR [INPPL1_Y663], for which the enrichment score in experiment [1] was inactive: 0.145; in experiment [2] it was inactive: 0.232; in experiment [3], inactive: 0.253; in experiment [4], inactive: 0.219; in experiment [5] it was inactive: 0.215; in experiment [6], inactive: 0.268.

For FQLENYCNGGG [INS_Y108_YF], the enrichment score in experiment [1] was inactive: 1.98; in experiment [2] it was inactive: 0.949; in experiment [3] it was inactive: 1.91; in experiment [4], inactive: 1.13; in experiment [5], inactive: 1.5; in experiment [6], inactive: 1.58.

FTYDPYSEEDP [IL2RB_Y387]: the enrichment score was inactive: 0.583 in experiment [1]; inactive: 0.605 in experiment [2]; inactive: 0.567 in experiment [3]; inactive: 0.441 in experiment [4]; inactive: 0.518 in experiment [5]; inactive: 0.915 in experiment [6].

With NNPAYYVLEGV [INPPL1_Y987], the enrichment score in experiment [1] was inactive: 0.985; in experiment [2] it was inactive: 0.848; in experiment [3] it was inactive: 0.821; in experiment [4], inactive: 0.614; in experiment [5], inactive: 0.872; in experiment [6], inactive: 0.786.

As to LEQQKYTVTVD [IKBKB_Y199], the enrichment score in experiment [1] was inactive: 0.755; in experiment [2] it was inactive: 0.943; in experiment [3], inactive: 0.748; in experiment [4], inactive: 0.79; in experiment [5], inactive: 0.947; in experiment [6] it was inactive: 0.904.

For RHFTGYRIELQ [INSR_Y818], the enrichment score in experiment [1] was active: 3.39; in experiment [2], inactive: 3.1; in experiment [3], active: 3.57; in experiment [4], inactive: 2.81; in experiment [5], active: 3.4; in experiment [6] it was active: 3.39.

Consider ANQDDHISFRH [IMP4_Y226_Y226H], for which the enrichment score is inactive: 0.553 in experiment [1]; inactive: 0.684 in experiment [2]; inactive: 0.697 in experiment [3]; inactive: 0.667 in experiment [4]; inactive: 0.604 in experiment [5]; inactive: 0.707 in experiment [6].

On to LTNDRYVATLT [IL6ST_Y396_L397V], for which the enrichment score in experiment [1] was inactive: 0.754; in experiment [2], inactive: 0.789; in experiment [3], inactive: 0.629; in experiment [4], inactive: 0.719; in experiment [5], inactive: 0.78; in experiment [6], inactive: 0.871.

For ERLLDYTRTVQ [INPP5E_Y439], the enrichment score in experiment [1] was inactive: 0.79; in experiment [2] it was inactive: 0.98; in experiment [3], inactive: 0.902; in experiment [4] it was inactive: 1.04; in experiment [5] it was inactive: 0.918; in experiment [6], inactive: 1.24.

For the molecule AQADIYKANFQ [IKBKG_Y308_D311N], the enrichment score in experiment [1] was inactive: 0.776; in experiment [2], inactive: 0.717; in experiment [3], inactive: 0.73; in experiment [4], inactive: 0.604; in experiment [5], inactive: 0.889; in experiment [6], inactive: 0.835.

As for MTRDIYETDYY [INSR_Y1185], the enrichment score is inactive: 0.662 in experiment [1]; inactive: 0.58 in experiment [2]; inactive: 0.675 in experiment [3]; inactive: 0.605 in experiment [4]; inactive: 0.603 in experiment [5]; inactive: 0.861 in experiment [6].

As to DIMDLYNQPEL [IL36A_Y96_P101L], the enrichment score is inactive: 0.857 in experiment [1]; inactive: 0.855 in experiment [2]; inactive: 0.709 in experiment [3]; inactive: 0.755 in experiment [4]; inactive: 0.821 in experiment [5]; inactive: 0.968 in experiment [6].

Take YLNSSYINIST [IL23R_Y178_T175N]: the enrichment score is inactive: 2.47 in experiment [1]; active: 4.25 in experiment [2]; active: 4.48 in experiment [3]; active: 9.39 in experiment [4]; active: 3.66 in experiment [5]; inactive: 2.21 in experiment [6].

As for ITRDIYETDFF [INSR_Y1185_M1180I_YF], the enrichment score in experiment [1] was inactive: 0.731; in experiment [2] it was inactive: 0.903; in experiment [3] it was inactive: 1; in experiment [4] it was inactive: 0.928; in experiment [5] it was inactive: 1.18; in experiment [6], inactive: 1.24.

Turning to ANQDDYISFRH [IMP4_Y226], the enrichment score in experiment [1] was inactive: 0.833; in experiment [2] it was inactive: 0.749; in experiment [3] it was inactive: 0.909; in experiment [4], inactive: 0.791; in experiment [5], inactive: 0.799; in experiment [6], inactive: 0.642.

On to KRLDGYVLEGR [IGSF9_Y656], for which the enrichment score in experiment [1] was inactive: 0.777; in experiment [2], inactive: 0.725; in experiment [3], inactive: 0.843; in experiment [4] it was inactive: 0.638; in experiment [5], inactive: 0.671; in experiment [6], inactive: 0.816.

As for SNPAYYVLEGV [INPPL1_Y987_N982S], the enrichment score in experiment [1] was inactive: 0.967; in experiment [2], inactive: 0.894; in experiment [3] it was inactive: 0.956; in experiment [4], inactive: 0.894; in experiment [5], inactive: 1; in experiment [6], inactive: 0.782.

Turning to VGNPAYRSFSN [IL4R_Y497_A492V], the enrichment score in experiment [1] is inactive: 0.413; in experiment [2] it was inactive: 0.58; in experiment [3], inactive: 0.472; in experiment [4], inactive: 0.556; in experiment [5], inactive: 0.33; in experiment [6], inactive: 0.622.

As to FTYDPYSEEEP [IL2RB_Y387_D391E], the enrichment score was inactive: 0.664 in experiment [1]; inactive: 0.494 in experiment [2]; inactive: 0.558 in experiment [3]; inactive: 0.448 in experiment [4]; inactive: 0.616 in experiment [5]; inactive: 0.545 in experiment [6].

Values taken from the supplement of paper PMC10369915.
